PubChem BioAssay AID493208 (National Center for Advancing Translational Sciences (NCATS), 2011)
The campaign covered roughly 44,000 compounds. About 340 (0.77%) were called active. About 5% were inconclusive and are not listed. Calls come from the whole dose curve; as a rule, active = well fitted inhibition curve with a large enough effect; inconclusive = small, poorly fitted or top-dose-only effect; inactive = flat fitted curve, though single readings scatter. This is one part of the list.

assay: Acumen qHTS Assay for Inhibitors of the mTORC1 Signaling Pathway in MEF (Tsc2-/-, p53-/-) Cells: Sytravon; conditions: phospho-rpS6 immunofluorescence/PI, 24 h; series mostly up to 38.3 µM; activity change, negative = inhibition: at the top concentration;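 note: plate controls were DMSO for no effect and rapamycin for full effect; nearly all actives have a fitted effect of over 50% in size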
Outline: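 Cell-based qHTS: Tsc2-/- p53-/- MEF, 24 h cpd, 37 °C; fix/perm, anti-phospho-S6 Alexa-488 + PI; Acumen 488 nm scan; pS6/PI ratio, % positive cells; rapamycin 7.5 nM = inhibition ref; PI count = viability.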

Row | SMILES | activity change, negative = inhibition
1 | CC(=O)c1cccc(Nc2cc(C)nc3nc(-c4ccccc4C)nn23)c1 | inactive: 0.367%
2 | Cc1ccc(CNC(=O)C2CCCN(c3nc4c(C)cc(C)cc4s3)C2)cc1 (stereo not given) | inactive: 0.707%
3 | O=C(Nc1ccc(NC(=O)c2cccs2)cc1)c1ccc(Cl)cc1 | inactive: -12.6%
4 | COC(=O)c1ccccc1NC(=O)Cn1ncc2c(C)n(Cc3ccc(F)cc3)c(C)c2c1=O | inactive: -2.25%
5 | O=C(COc1ccccc1)NCCc1csc(-c2ccc(F)cc2)n1 | inactive: 4.2%
6 | CN(C(=O)Cn1c(=O)n(Cc2ccc(C(=O)NCc3ccc4c(c3)OCO4)cc2)c(=O)c2ccccc21)c1ccccc1 | inactive: 3.87%
7 | COc1ccc(CNC(=O)CCc2nc3cccnc3n2Cc2ccc(OC)cc2)cc1 | inactive: -10.9%
8 | O=C(Cn1cc(S(=O)(=O)Cc2cccc(Cl)c2)c2ccccc21)Nc1ccc(F)c(Cl)c1 | inactive: -0.818%
9 | CCCCOc1ccc(Cn2c(=O)oc3ccccc32)cc1 | inactive: -5.73%
10 | Cc1ccccc1Cc1c(C)nc2c(-c3ccccc3)c(C)[nH]n2c1=O | inactive: 10.3%
11 | CCOc1ccc(OCC(=O)NCCS(=O)(=O)N2CCN(c3ccc(OC)cc3)CC2)cc1 | inactive: -23.4%
12 | Cc1ccc(NC(=O)Cn2c(=O)n(CCc3ccccc3)c(=O)c3sc4ccccc4c32)cc1C | inactive: -3.19%
13 | COc1ccccc1CNS(=O)(=O)c1cc(-c2cc(C)no2)ccc1C | inactive: 1.22%
14 | O=C(NCc1cccc(Cl)c1)c1oc(=O)c2ccccc2c1-c1ccccc1 | inactive: 0.804%
15 | Cc1nn(CCCC(=O)NCCc2ccc(Cl)cc2)c(=O)c2nn(-c3ccccc3)c(C)c12 | inactive: 0.174%
16 | COc1ccc(C2CC(=O)c3cc(-c4nc(-c5cccc([N+](=O)[O-])c5)cs4)c(=O)n(-c4ccccc4C)c3C2)cc1 (stereo not given) | inactive: 1.33%
17 | CCn1c(=O)c(C(=O)Nc2cc(OC)c(OC)c(OC)c2)nc2ccccc21 | inactive: 0.657%
18 | O=C(NCc1ccccc1F)c1cccc(NC(=O)N2CCSc3ncccc32)c1 | inactive: 0.0274%
19 | Cc1ccc(-c2cc(NC(=O)COc3c(C)cc(C)cc3C)on2)cc1 | inactive: -0.817%
20 | COc1ccccc1C(=O)NCCc1csc(-c2ccc(C(F)(F)F)cc2)n1 | inactive: -15.1%

Row | SMILES | activity change, negative = inhibition
21 | COc1cc(NC(=O)Cn2c(=O)n(CC3CCCO3)c(=O)c3cc(OC)c(OC)cc32)cc(OC)c1 (stereo not given) | inactive: 0.985%
22 | CCc1ccc(C2CC(=O)N(c3cccc(C(F)(F)F)c3)C3=C2C(=O)OC3)cc1 (stereo not given) | inactive: -4.2%
23 | CCOCCc1nn2c(=O)cc(COC(=O)c3ccc(NC(=O)c4ccc(F)cc4)cc3)nc2s1 | inactive: -7.4%
24 | Cc1ccc(C)c(NC2=C(c3ccc(C(F)(F)F)cc3)C(=O)c3ccccc32)c1 | inactive: -11%
25 | CC(=O)N1CCc2cc(CNC(=O)Nc3ccccc3C(F)(F)F)ccc21 | inactive: -2.37%
26 | Cc1cccc(Cn2nnc3c(=O)[nH]c(C4CCCN(C(=O)c5ccc(C(C)(C)C)cc5)C4)nc32)c1 (stereo not given) | inactive: -1.24%
27 | CCCN1CCCc2cc(CN(CCCN3CCOCC3)C(=O)Nc3ccc(OCC)cc3)ccc21 | inactive: -13.1%
28 | COc1ccc2c(CNC3CCC(C)CC3)c(C(=O)O)n(Cc3ccccc3)c2c1 (stereo not given) | inactive: 1.95%
29 | Cn1c2ccccc2c2c(C(=O)N3CCN(c4cccc(C(F)(F)F)c4)CC3)cn(C3CCCCC3)c(=O)c21 | inactive: 2.46%
30 | CCOc1ccccc1CNC(=O)C1CCN(Cc2cc3ccccc3n2Cc2ccccc2)CC1 | inactive: -9.52%
31 | Cc1ccc(-c2cn3nc(N4CCC(C(=O)Nc5ccccc5C)CC4)sc3n2)cc1 | inactive: 8.06%
32 | Cc1ccc2oc(C(=O)Nc3ccc(S(=O)(=O)Nc4ncccn4)cc3)cc(=O)c2c1 | inactive: 0.856%
33 | CN(C)S(=O)(=O)N(CC(=O)NCCSc1ccc(Cl)cc1)c1ccccc1 | inactive: 2.86%
34 | CCC(C(=O)Nc1cc(OC)ccc1OC)n1nc(-c2ccccc2)c2c(c1=O)CCCC2 (stereo not given) | inactive: -19.7%
35 | COc1cc2nc(NC(=O)c3ccc(S(=O)(=O)N4CCCC4)cc3)sc2cc1OC | inactive: -11.2%
36 | O=C(COCc1cc(-c2ccc3c(c2)OCO3)on1)N1CCN(c2cccc(C(F)(F)F)c2)CC1 | inactive: 0%
37 | CCCS(=O)(=O)c1nc(S(=O)(=O)c2ccc(C)cc2)c(NC(C)c2ccccc2)s1 (stereo not given) | inactive: -10.7%
38 | CN1C(C(=O)NC(C)(C)C)=CC(c2ccc3c(c2)OCO3)=NS1(=O)=O | inactive: -1.47%
39 | COc1cccc(NS(=O)(=O)c2ccc3[nH]cc(C(=O)NCCc4ccc(C)cc4)c(=O)c3c2)c1 | inactive: 1.83%
40 | Cc1cc(C)c2oc(C(=O)Nc3nc4ccc(Cl)cc4s3)cc(=O)c2c1 | inactive: 4.7%

Row | SMILES | activity change, negative = inhibition
41 | Cc1ccc(-n2ccnc(NCc3cccs3)c2=O)cc1C | inactive: -4.94%
42 | Cc1cccc(Cn2c(SCc3ccc(C(=O)NCc4ccccc4F)cc3)nc3cccnc32)c1 | inactive: -12.4%
43 | CCC(=O)N1CCc2cc(S(=O)(=O)NCCC(=O)Nc3cccc(SC)c3)ccc21 | inactive: -10.8%
44 | O=C(COc1ccccc1F)Nc1ccc2nc(SCc3ccccc3)sc2c1 | inactive: 1.41%
45 | COc1ccc2oc(=O)c(-c3nc4ccc(C)cc4[nH]3)cc2c1 | inactive: -4.65%
46 | CCOC(=O)c1cc(-c2ccc(F)cc2)n(CCC(=O)NCc2ccc(C)cc2)c1C | inactive: -15.6%
47 | COc1ccc(Br)cc1CC1C(=O)Nc2ccccc21 (stereo not given) | inactive: -27.3%
48 | CN(C(=O)NCc1noc2ccccc12)c1cccc(Cl)c1 | inactive: -4.73%
49 | COc1ccccc1NC(=O)C1=C(C)Nc2nc(SCc3ccccc3Cl)nn2C1c1cccnc1 (stereo not given) | inactive: -24.9%
50 | Cc1ccc2c(c1)sc1nc(=O)n(-c3cccc(Cl)c3)c(=O)n12 | inactive: -12%
51 | CCCN1C(C(=O)c2ccccc2)=C(OC(=O)C(C)(C)C)c2ccccc2S1(=O)=O | inactive: -7.94%
52 | Cc1ccc(NC(=O)CN2CCN(C3CCCCC3)C(=O)C2=O)cc1C | inactive: 0%
53 | Cc1ccc(NC(c2cccc(Cl)c2)c2nnc(-c3ccccc3)o2)cc1F (stereo not given) | inactive: 0.493%
54 | CCOC(=O)C1CCN(C(=O)Cn2nc(CC)n3c(cc4occc43)c2=O)CC1 | inactive: -14.5%
55 | CCCCc1nn2c(C)c(-c3ccc(OCC)cc3)nc2s1 | inactive: -9.36%
56 | Cc1cc(Cl)ccc1NS(=O)(=O)c1cc2[nH]c(=O)c(=O)[nH]c2cc1C | inactive: -0.195%
57 | Cc1ccc(-n2c(=O)[nH]c3sc4c(c3c2=O)CCNC4)cc1C | inactive: 4.7%
58 | O=C(Cn1ncc2c3ccccc3n(Cc3cccc(Cl)c3)c2c1=O)N1CCCCC1 | inactive: 1.29%
59 | COc1ccc(CN2C(=O)c3ccccc3C2C(=O)NC2CCCCCC2)c(OC)c1 (stereo not given) | inactive: -0.725%
60 | CCc1ccc(-c2nn(CC(=O)NC3CCCCC3)c3c2cnc2ccc(OC)cc23)cc1 | inactive: -12.2%
